This is one part of the list.
Tests used:
HSkMC = human skeletal muscle cells; test: cytotoxicity call (relative viability < 0.9); details: 10 µM
HepG2 = test: cytotoxicity call (relative viability < 0.9); details: 10 µM
S. aureus RN4220 = test: growth inhibition call (relative growth <= 0.2); details: 50 µM

Row | SMILES | cytotoxicity call (HSkMC) | cytotoxicity call (HepG2) | growth inhibition call (S. aureus RN4220)
1 | C[C@H](CO)N1C[C@H](C)[C@@H](CN(C)S(=O)(=O)c2cccs2)Oc2c(NC(=O)c3ccncc3)cccc2C1=O | inactive | inactive | inactive
2 | Cc1ccc(S(=O)(=O)N(C)C[C@H]2Oc3c(NC(=O)C4CCOCC4)cccc3C(=O)N([C@@H](C)CO)C[C@@H]2C)cc1 | inactive | inactive | inactive
3 | O=C1CCC(C(=O)N2CCN(CC3CC3)[C@@H]3CS(=O)(=O)C[C@@H]32)=NN1 | inactive | inactive | inactive
4 | C[C@@H]1CCCCO[C@@H](CN(C)Cc2ccccc2)[C@H](C)CN([C@H](C)CO)C(=O)c2cc(NC(=O)Cc3ccccc3)ccc2O1 | inactive | inactive | inactive
5 | Cn1cccc1[C@@H](CN)N1CCCC1 | inactive | inactive | inactive
6 | C[C@H]1CCCCO[C@H](CN(C)C(=O)Nc2cccc3ccccc23)[C@@H](C)CN([C@@H](C)CO)C(=O)c2cc(NC(=O)Nc3ccc(C(F)(F)F)cc3)ccc2O1 | inactive | inactive | inactive
7 | CNCCC(Oc1cccc2ccccc12)c1cccs1.Cl (stereo unspecified) | inactive | active | inactive
8 | COc1ccc(CN(C)C[C@H]2Oc3ccc(NC(=O)Cn4cnnn4)cc3C(=O)N([C@H](C)CO)C[C@@H]2C)cc1 | inactive | inactive | inactive
9 | COc1ccc(NC(=O)Nc2ccc3c(c2)C(=O)N([C@@H](C)CO)C[C@H](C)[C@@H](CN(C)S(C)(=O)=O)O3)cc1 | inactive | inactive | inactive
10 | C[C@H](CO)N1C[C@H](C)[C@H](CN(C)S(=O)(=O)c2ccccc2)Oc2ccc(NC(=O)Cn3cnnn3)cc2CC1=O | inactive | inactive | inactive
11 | COC(=O)c1c(CC[C@@H](CO)NC(=O)N[C@H](Cn2cc(-c3cncn3C)nn2)C(C)C)oc(C(C)=O)c1C(=O)OC | inactive | inactive | inactive
12 | COc1cccc(C#Cc2cnc3c(c2)C(=O)N([C@H](C)CO)C[C@H](C)[C@@H](CN(C)C(=O)C2CCOCC2)O3)c1 | inactive | inactive | inactive

Source: the antibiotic and cytotoxicity screens of Wong et al. (2023)
